# Experimental data taken from the supplement of paper PMC11417369.
# ± gives the standard deviation of the averaged measurements. The list shows a part of the results.
# Tested on: PfAP2-G AP2 domain (GST-tagged)
# Experiment: gcPBM binding intensity (ln(normalized median fluorescence intensity)); higher = stronger DNA binding
# Outline: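 Plasmodium falciparum DNA-binding domains carrying a GST tag were expressed in E. coli and applied for 1 h, at about 25 μg on average, to an Agilent 4 × 180k array. The array held primer-extended double-stranded 36-bp intergenic genomic probes together with negative controls, and binding took place in 1× PBS with 1% milk, 0.2 mg/ml BSA, 0.5% salmon testes DNA and 0.03% Triton X-100. An Alexa488 anti-GST antibody detected bound protein, and the array was scanned at 488 nm. Binding intensity is taken as the highest Masliner-normalised natural-log median intensity across replicate spots of either probe orientation.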
row,Sequence,gcPBM binding intensity (ln)
1,AAAAGAAAATTAAATTAACACACATAAATATATATA [CACACA_site8482],9.72 ± 0.16
2,TTCACATACAGAAACACACACATATTTATAAATTAA [CACACA_site7699],9.98 ± 0.16
3,ATTATTTAATTTTATTAAAAAAAAACAAATTAACAG [GTGCAC_negctrl_site152],9.98 ± 0.3
4,TATTATTTTTCCTAATGTACAAAATATATATTTTTA [XGTACX_site2727],10.6 ± 0.28
5,TTTGAATATATAAATATGCACACTTCTATTATAAAT [CACACA_site3359],9.92 ± 0.042
6,TTCTTATATAAATACACACACAAAATATCTACAATG [CACACA_site4568],10.27 ± 0.099
7,AATCGATTGGATAATATTTTTTCTCTTAATTTTTTG [GTGCAC_negctrl_site165],9.725 ± 0.092
8,AAAAAAATAAAAAGGAACGTCTATAGTTAATTTATT [CACACA_negctrl_site919],9.96 ± 0.2
9,ATGTTGCACAATGTTACACACACAATATATATCGTT [CACACA_site4833],10.3 ± 0.16
10,TATATTAGAAGAAATTCACACATTCATGTAATCTTA [CACACA_site4706],9.52 ± 0.16
11,AAAAAAAACAGACACACACACAAATACATACACAAA [CACACA_site705],10.2 ± 0.15
12,CCATTTACAAAAAGGAGTACACAAATATATGTTTAA [XGTACX_site649],11.6 ± 0.93
13,TTTTTTTTGTTGTTGTTGCACTTGATAGGAATGGCT [GTGCAC_site9701],10.2 ± 0.4
14,TACAAATATGGACACACACACATATTTATATTTATA [CACACA_site6420],11.1 ± 0.67
15,AAAAAACAGACATACACACACACACGGATATTTATA [CACACA_site7570],10.1 ± 0.11
16,ATATAAATGTATATGACACACATATATATATATATA [CACACA_site889],10.2 ± 0.3
17,AATATTTATGGGTGCACACAAACATACAGATATATA [CACACA_site5810],10.7 ± 0.52
18,TATATATATATCAAGTGTACTTGTGTTTGTAATATT [XGTACX_site8854],11.4 ± 1
19,TACTTACAGATAATAACACACAAGAAAAAAATAAAA [CACACA_site4716],10 ± 0.17
20,TATATCAAAATACATACACACATTTGTATATACATT [CACACA_site2696],9.925 ± 0.021
21,TTAAATATTTTTAGAGTGCATGTAATAAAAATATAA [GTGCAC_site9414],10.2 ± 0.26
22,TATATACAGAAACACACACACACATATATATATATA [CACACA_site2247],10.1 ± 0.27
23,TATCTATATGGGAACACACTCATAAATATATATCTA [CACACA_site4815],10.1 ± 0.13
24,TATATTTATTTATATACACACACTTGTATAAAAAAT [CACACA_site2036],10.1 ± 0.23
25,TTTTAAAAATAATAAATAAATAAAATTGAAGTTCCA [CACACA_negctrl_site305],9.63 ± 0.014
26,AAAATAAATAAATACACACACACGAATATATATATA [CACACA_site1683],10.1 ± 0.33
27,AAAATTTTTAAATATTGTACTATTTATTTTTAGCAT [XGTACX_site6190],11.2 ± 0.69
28,GCCTACAGACTTAGTAGTACATGAGAAGATATATAT [XGTACX_site2269],11.5 ± 1.1
29,AATATGAACGGACACACACACACAAAAAAAAAAAAA [CACACA_site5154],10.9 ± 0.87
30,TATATATATATATTTACACACATTCATATAAATTCA [CACACA_site3532],9.83 ± 0.28
